Here are results for 44 sequences from the supplement of paper PMC11417369.

± gives the standard deviation of the averaged measurements. The list shows a part of the results.

The assay deals with PfAP2-G AP2 domain (GST-tagged). Description: gcPBM binding intensity (ln(normalized median fluorescence intensity)); higher = stronger DNA binding. Put shortly:
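GST-tagged P. falciparum DNA-binding domains produced in E. coli were incubated for 1 h on an Agilent 4 × 180k array of primer-extended double-stranded 36-bp intergenic genomic probes with negative controls. Binding intensity is the highest Masliner-normalised natural-log median intensity across replicate spots of either probe orientation, with bound protein detected by Alexa488 anti-GST antibody at 488 nm.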
Take “TCATTAATATTTCATAGTACAATTTTGTCTAATTGT [XGTACX_site6720]”: the “gcPBM binding intensity (ln)” value amounted to 10.6 ± 0.41.

With “AAAAAAAAAAAAAGTAGTACATAATATGTTCCTCCT [XGTACX_site8356]”, the “gcPBM binding intensity (ln)” value was 11.6 ± 1.

As to TTTTGTTATGAGAGGGTGCTAATATTTGGATATAAA, the “gcPBM binding intensity (ln)” value was found to be 9.99 ± 0.22. With “AAAAAAAGAAAAATTGCACACACTTATAAAAATATA [CACACA_site4014]” the figure was 9.995 ± 0.078.

“TATAAAATAAGACATGCATGTTATACATATATATAT [TGCATGCA_site314]”: the “gcPBM binding intensity (ln)” value was 10 ± 0.33. Then “CCCCCCGTGTTATATACACACATAATCAAATAAAAT [CACACA_site4111]”, with 11.8 ± 0.99; and “TCTTATTAAAATATTTATATAGGTAATCACAATATT [GTGCAC_negctrl_site568]”, with 9.83 ± 0.042. Then “AGAAATAAGAAATATACACACATATATATATATATA [CACACA_site2808]”, with 10.3 ± 0.9; and “ATCATGTTATATATGTGTACATATATATGATATAAT [XGTACX_site991]”, with 11.2 ± 0.81; and “TGAACAATGTATAATTGTACGCAACGAAAATAAAAA [XGTACX_site1559]”, with 11.5 ± 0.86. Then “ATATATAATTACACAAATAAAAAAATAAAATGAAAT [CACACA_negctrl_site1513]”, with 9.825 ± 0.007; and “AGAATAAAAATACAAGCACACATGTATGAAATATAT [CACACA_site3213]”, with 9.96 ± 0.24. For the sequence “ATTATAAATTAAAATACACACATATATACCTAATAT [CACACA_site5541]”, the “gcPBM binding intensity (ln)” value was determined as 9.98 ± 0.014. Then “CAACGATACAAAAAAGGTACACATATATATATATAT [XGTACX_site8688]”, with 11.3 ± 0.91; and “TATATAAAATTCTATTGTACATGTTATACGAAAGAA [XGTACX_site5711]”, with 11 ± 0.71. In the case of “CAATTTTCTAATGAAACATGCAAAATAAAATTTTAT [TGCATGCA_site13]”, the “gcPBM binding intensity (ln)” value worked out at 10.1 ± 0.12. With “TTCTTTTTAATGTCGGTGCAACTCCATAAAAACAAA [GTGCAC_site9488]” the figure was 10.2 ± 0.37; with “GAGGATCATCAATTCACACACATAAAAATGAAGTTA [CACACA_site3078]”, 9.835 ± 0.035. Consider “TTTATATTTAAATGCATGCACTTTCTATTTTTTTTT [GTGCAC_site9959]”, for which the “gcPBM binding intensity (ln)” value worked out at 9.63 ± 0.25. With “GAATAAAGGAGAGGCACACATATATATATATATATA [CACACA_site2452]” the figure was 10.1 ± 0.3; with “TATTTGATAAATTATACACACACAATATATATAAAA [CACACA_site8625]”, 10.04 ± 0.085.

Take “CAAATACATAGACACACACACATATACATATTTATA [CACACA_site7610]”: the “gcPBM binding intensity (ln)” value came to 10.1 ± 0.11. “ACATAAAATAAATATACACACATATGTATATATCAT [CACACA_site7424]”: the “gcPBM binding intensity (ln)” value was 9.965 ± 0.049. With “TTATTTTATAAATCGAAAACAAACAAAAAAAAGATA [XGTACX_negctrl_site178]” the figure was 10.2 ± 0.27; with “TTGCTGTATTTATTTTGTACACATTTGGCATTATAT [XGTACX_site3408]”, 11.2 ± 0.73; with “AAAAAAAAAAGAAAGAGTACTTTTTCAATACATATA [XGTACX_site2468]”, 11.1 ± 0.7. Then “AAGAAAAACAATACGTGTACCAAGCATCCTACTAAC [XGTACX_site6628]”, with 10.9 ± 0.42.

On to “GACCATGTTAACAAAGCATGCATCTCTATATGTTTA [TGCATGCA_site358]”, for which the “gcPBM binding intensity (ln)” value worked out at 9.87 ± 0.26. With “TTTGTAGCACTTAAGAGTACAAAATGTATAAGATTT [XGTACX_site2321]” the figure was 11.2 ± 0.81; with “TTAATATAATTAAAATGTACTTATTTGTAAACATTA [XGTACX_site6313]”, 11.1 ± 0.79.

As for “TAATTATAGGTATACACACACATACATTTACATAAC [CACACA_site7509]”, the “gcPBM binding intensity (ln)” value is 10.3 ± 0.17. With “TTTTATTATTTTTGTTGTACAGTATACTGTATGATT [XGTACX_site5359]”, the “gcPBM binding intensity (ln)” value turned out to be 11.4 ± 0.81. Then “AAAAAAATATATATATATATATATATATTATATATG [GTGCAC_negctrl_site654]”, with 9.565 ± 0.078. As for “TTTAAAAAAAAAAAAAAAAAAAAAAAAAAAAATTTG [CACACA_negctrl_site1235]”, the “gcPBM binding intensity (ln)” value was determined as 9.55 ± 0.042.

With TAAAACAAAAAAAAGATGCACTATTTATTTTATTAT, the “gcPBM binding intensity (ln)” value is 9.885 ± 0.021.

“AACAAACACAGACACACACACACACTAATATGATTA [CACACA_site8770]”: the “gcPBM binding intensity (ln)” value was 10.2 ± 0.25. Then “ATATACTATTATGTGTGTACATAATAATTTATTATA [XGTACX_site3776]”, with 11.3 ± 0.91; and “TCATACATTTTCCTTGCACACATTTATAATTAATGG [CACACA_site4511]”, with 10.3 ± 0.16; and “ATATAAGAACAAAATTGTACATAAATATTTATATAA [XGTACX_site7404]”, with 10.8 ± 0.54. Then “TTATCACATTATTGCACACACATAAAGAAAAAAATA [CACACA_site2841]”, with 10.4 ± 0.5; and “AATAAAAAGAAACACACACACACACCCATATATATA [CACACA_site3589]”, with 10 ± 0.16; and “AAAGATACTTTCCTCAAACACACAAAACTATACAAC [CACACA_site1475]”, with 10.3 ± 0.18. With “TGAGAAAAAAAGAATTGTACATATAAAATATAACAA [XGTACX_site3500]” the figure was 10.9 ± 0.69; with “AAAAAAAAGGAAAATAAAAATAAAAAAAAATAATAA [XGTACX_negctrl_site601]”, 9.585 ± 0.064.
